# Screen size: about 310,000 compounds; about 14,000 (4.5%) showed an effect of 50% or more. The effect is printed as a negative number. The list shows a part of the results.
# Target: human ether-à-go-go-related gene (hERG) potassium channel (human, UniProt Q12809)
# Assay: primary screen, population patch clamp on CHO cells stably expressing hERG
# 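Note: peak tail current of the secondary pulse compared with the same well before compound.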
# Sequence of human ether-à-go-go-related gene (hERG) potassium channel (Q12809 whole entry, looked up): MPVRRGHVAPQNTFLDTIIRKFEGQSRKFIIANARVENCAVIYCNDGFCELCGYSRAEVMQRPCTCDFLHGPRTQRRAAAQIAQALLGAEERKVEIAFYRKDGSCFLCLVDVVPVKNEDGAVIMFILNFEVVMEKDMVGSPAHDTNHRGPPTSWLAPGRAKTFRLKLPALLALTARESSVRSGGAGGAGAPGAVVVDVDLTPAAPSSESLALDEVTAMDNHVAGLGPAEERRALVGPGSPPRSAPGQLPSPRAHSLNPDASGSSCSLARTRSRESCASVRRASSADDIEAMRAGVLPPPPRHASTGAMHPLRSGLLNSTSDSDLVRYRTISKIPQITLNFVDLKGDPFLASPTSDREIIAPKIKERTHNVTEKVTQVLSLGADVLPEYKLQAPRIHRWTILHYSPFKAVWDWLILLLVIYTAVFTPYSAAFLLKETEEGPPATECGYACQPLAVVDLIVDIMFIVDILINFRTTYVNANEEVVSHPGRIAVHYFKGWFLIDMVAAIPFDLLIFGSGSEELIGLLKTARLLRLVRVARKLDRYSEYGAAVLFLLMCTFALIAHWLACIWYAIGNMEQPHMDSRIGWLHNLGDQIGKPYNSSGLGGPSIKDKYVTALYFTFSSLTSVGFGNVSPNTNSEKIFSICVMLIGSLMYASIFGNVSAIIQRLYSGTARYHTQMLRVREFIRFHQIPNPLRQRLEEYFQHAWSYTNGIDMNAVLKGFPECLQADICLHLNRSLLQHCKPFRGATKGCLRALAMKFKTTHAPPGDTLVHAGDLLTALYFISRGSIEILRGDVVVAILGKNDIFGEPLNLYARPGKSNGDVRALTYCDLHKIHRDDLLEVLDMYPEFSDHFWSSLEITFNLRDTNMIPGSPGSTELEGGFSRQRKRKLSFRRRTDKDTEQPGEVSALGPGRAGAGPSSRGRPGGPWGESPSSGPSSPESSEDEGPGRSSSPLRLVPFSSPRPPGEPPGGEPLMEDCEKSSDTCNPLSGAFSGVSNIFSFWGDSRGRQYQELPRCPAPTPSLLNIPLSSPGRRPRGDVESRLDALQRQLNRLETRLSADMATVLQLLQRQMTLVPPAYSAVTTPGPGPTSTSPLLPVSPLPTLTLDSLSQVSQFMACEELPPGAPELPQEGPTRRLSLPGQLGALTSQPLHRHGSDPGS
row,SMILES,"hERG current change (%, negative = inhibition) at 10uM [%]"
1,C/C(=N\NC(=O)Cc1ccc(Cl)cc1)c1cccc(NC(=O)c2cccnc2)c1,7.49
2,Cc1ccc(S(=O)(=O)N2CCCSCC2)cc1,1.89
3,Cc1cccc(N2CCN(CCNC(=O)c3cc4c(s3)CS(=O)(=O)C4)CC2)c1C,-45.2
4,OCC(Cl)CCl (centres unmarked),-3.16
5,CCOc1ccc(CN(C)CC(=O)NNC(=O)c2ccc(Cl)cc2)cc1OC,-60.3
6,N#CC(C(=O)NC1CC1)c1nc2ccccc2nc1N1CCN(C/C=C/c2ccccc2)CC1 (centres unmarked),-58.9
7,O=C(OCc1c(Cl)cccc1Cl)c1cccnc1Cl,0.492
8,CCn1c(SCc2ccccc2F)nnc1-c1ccncc1,-6.25
9,Cc1ccc(-c2nnn3c2nc(NC(C)C)c2ccccc23)cc1,7.17
10,CN1CCN(C(=O)c2cc(Cl)ccc2NC(=O)c2ccc(Cl)cc2Cl)CC1,-7.99
11,CCN(CC)C(=O)Cn1cc(S(=O)(=O)CC(=O)Nc2ccccc2F)c2ccccc21,-17.5
12,Cc1ccc(SCc2cc(=O)[nH]c(Nc3nc(C)c4cccc(C)c4n3)n2)cc1,-26.2
13,Nn1c(SCCOc2ccccc2)nnc1-c1cccnc1,12.9
14,COc1ccc(S(=O)(=O)N2CCCCC2)cc1NC(=O)CCc1nc2ccccc2c(=O)[nH]1,0.795
15,COc1ccc(C(=O)Nn2cnnc2)cc1OC,14.6
16,COC(=O)/C=C/c1ccc2c(c1)S(=O)(=O)N(Cc1ccc(OC)cc1)[C@H]2CC(=O)OC,-24.9
17,CC1CCCN(C(=O)COc2ccc(-c3ccccc3)cc2)C1 (centres unmarked),-35.5
18,CCOC(=O)C1=CC(=C2C(=O)N(CC)C(=S)N(CC)C2=O)c2ccccc2O1,23
19,COCCNC(=O)CN(C(=O)CCC(=O)Nc1cc(C)on1)c1ccccc1C,5.72

row,SMILES,"hERG current change (%, negative = inhibition) at 10uM [%]"
1,CCC(=O)N1c2ccccc2C(N(C(C)=O)c2ccccc2)CC1C (centres unmarked),3.24
2,CCOc1cc(/C=C2/NC(=S)NC2=O)ccc1OCc1ccc([N+](=O)[O-])cc1,4.97
3,O=C(CCc1ccccn1)N1CCCC(Nc2cccc(F)c2)C1 (centres unmarked),-10.3
4,O=C(CSc1n[nH]c(=O)[nH]c1=O)c1ccc([N+](=O)[O-])cc1,-16.7
5,CC(C)(O)C#Cc1ccc(C(=O)NCc2ccccc2)s1,-12.1
6,CC1(C)Cc2nc(Cl)c(C(=O)O)cc2CO1,16.6
7,CCOC(=O)C1CCN(CC(=O)Nc2ccc(S(=O)(=O)N3CCC(C)CC3)cc2)CC1,-16.6
8,Cc1cc(C)cc(C(=O)N2CCN=C2SCc2ccc([N+](=O)[O-])cc2)c1,-23.5
9,O=c1[nH]c2cc3c(cc2cc1CN(CCc1ccccc1)Cc1nnnn1CC1CCCO1)OCO3 (centres unmarked),-4.91
10,COc1ccc(NC(=O)C2=CC(c3ccc(C)cc3)=NS(=O)(=O)N2C)cc1,-5.29
11,COc1ccc(/C=N/NC(=O)c2ccncc2)cc1CN1CCN(c2ccc(F)cc2)CC1,-77
12,CCSc1nnc(NC(=O)C(Cc2ccccc2)n2cccc2)s1 (centres unmarked),1.31
13,Cc1ccc(OCCCC(=O)Nc2ccc(Cl)c(S(=O)(=O)N3CCOCC3)c2)cc1,-14.4
14,COCc1nnc(NC(=O)CCS(=O)(=O)c2ccccc2)s1,22.9
15,COCCCNC(=S)NCCc1ccc(F)cc1,13.7
16,Cc1ccc(CNC(=O)Cc2ccc(Br)cc2)cc1,20.8
17,CCCNC(=O)C1CCN(S(=O)(=O)c2ccc3c(c2)OCCO3)CC1,-4.3
18,Cc1ccc(S(=O)(=O)CCC(=O)Nc2ccc(Br)cc2)cc1,-7.37
19,CCCSc1nnc(-c2cnn(-c3ccccc3)c2-n2cccc2)n1C,-33.7

row,SMILES,"hERG current change (%, negative = inhibition) at 10uM [%]"
1,CCC(C)NCCCCOc1ccc(Br)cc1.O=C(O)C(=O)O (centres unmarked),-32.6
2,Cc1ccc(-n2[nH]c(C)c(C=Nc3ccc(S(=O)(=O)Nc4nccs4)cc3)c2=O)cc1C,4.5
3,NC(=S)Nc1cccc(O)c1,13.2
4,C/C(=N\NC(=O)c1cccc2ccccc12)c1cccs1,6.58
5,COc1cccc(CNC(=O)c2ccc(CS(=O)(=O)Cc3ccccc3C)o2)c1,-8.18
6,CCc1ccc2c(CN3CCOCC3)cc(=O)oc2c1,-31.7
7,COc1ccccc1-c1cc(C(=O)N2CCCCC2)no1,-1.75
8,COc1ccc(Oc2nc3c(c(=O)n(C)c(=O)n3C)n2C)cc1,17.7
9,C[C@]12C(=O)N(c3ccc(Cl)cc3)C(=O)N1[C@@H]1c3ccccc3OC[C@@H]1[C@H]2c1ccccc1,8.19
10,Cc1oc(/N=C/c2ccc(O)cc2O)c(C#N)c1C,19.8
11,COc1ccc(CNC(=O)COC(=O)c2ccc(OCc3c(C)noc3C)cc2)cc1OC,13.8
12,CCc1ccc(-c2csc(-c3c[nH]c4ccccc34)n2)cc1,3.01
13,CCCCOc1ccc(C(=O)NCC(=O)NC2CCC(C)CC2)cc1 (centres unmarked),-0.305
14,Cc1c(Cl)cccc1NC(=O)CSCc1cc(=O)[nH][nH]1,-4.12
15,COc1ccc(NC(=O)CN(C)C(=O)CSCC(=O)Nc2ccc(C)cc2)cc1,-0.753
16,CN(CCc1ccccn1)C(=O)CCC1CCCN(C(=O)c2c3c(nn2C)CCCC3)C1 (centres unmarked),28.5
17,CCN(C(=O)Cn1c(=O)oc2cc(S(=O)(=O)N3CCOCC3)ccc21)c1ccccc1,-5.23
18,O=C1CN(C(=O)COC(=O)c2cc(S(=O)(=O)N3CCOCC3)ccc2Cl)c2ccccc2N1,-32.6
